# Hit rate of the full screen: of about 310,000 compounds, about 18,000 (5.8%) were called active. This list was built around the results that the source calls inconclusive (neither active nor inactive); the mix of calls is not that of the screen. Calls follow the shape of the dose curve; as a rule, active = well fitted inhibition curve with a large enough effect; inconclusive = small, poorly fitted or top-dose-only effect, or another doubt; inactive = no such curve, though single readings can be large or run the other way. Potencies of inconclusive entries are left out as doubtful fits.
# Experiment: Primary qHTS for delayed death inhibitors of the malarial parasite plastid, 48 hour incubation
# Settings: P. falciparum luciferase growth in erythrocytes; series mostly up to 28.7 µM
# Method in brief: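 Read-out is firefly luciferase luminescence from an integrated reporter in P. falciparum, so falling signal marks reduced parasite growth. Infected erythrocytes were at 2% hematocrit and 0.1% parasitemia (final) in Albumax-supplemented RPMI 1640.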
# Potency is read from the fitted curve at half-maximal effect; tags tell the direction and shape of the fitted curve.
row,Compound,Potency
1,NNC(=S)Nc1ccc(C(F)(F)F)cc1Cl,"inconclusive [inhibitor, single point]"
2,COc1cccc(-c2nnc(NC(=O)c3ccc(Cl)s3)o2)c1,"inconclusive [inhibitor, single point]"
3,COc1ccccc1-n1c(C)nnc1SCC(=O)Nc1cccc(C(C)=O)c1,inactive
4,COC(=O)c1ccc2nc(NC(=O)CCS(=O)(=O)c3ccccc3)sc2c1,inactive
5,COC(=O)[C@H](Cc1ccccc1)NC(=O)C1CCN(C(=O)[C@H](C)NS(=O)(=O)c2ccc(C)cc2)CC1,"inconclusive [inhibitor, single point]"
6,COc1ccc(C(=O)N/C(=C\c2cn(C)c3ccccc23)C(=O)NCCCn2ccnc2)cc1OC,"inconclusive [inhibitor, single point]"
7,COc1cc(/C=C2/S/C(=N/S(=O)(=O)Cc3ccccc3)NC2=O)c([N+](=O)[O-])cc1OC,"inconclusive [inhibitor, partial curve, poor fit]"
8,O=C(Nc1ccc2c(c1)CCC2)c1cnc(Cl)c(Cl)c1,inactive
9,Cc1ccc(OCC(=O)OCC(=O)N2c3ccccc3CC2C)cc1C (stereo not drawn),inactive
10,CCC(C)n1c(=N)c(C#N)cc2c(=O)n3cc(C)ccc3nc21 (stereo not drawn),"inconclusive [inhibitor, single point]"
11,O=C(Nc1ccc2c(c1)oc1ccccc12)c1cccnc1,"inconclusive [inhibitor, single point]"
12,CCN(CC)C(=O)c1sc(NC(=O)c2ccc3c(c2)OCO3)c(C(N)=O)c1C,inactive
13,COCCN(C(=O)Cn1nnc2ccccc21)C(C(=O)NC1CCCCC1)c1ccc(OC)cc1OC (stereo not drawn),"inconclusive [inhibitor, partial curve]"
14,O=c1[nH]cnc2c1C(c1ccc(Cl)cc1)c1c(nc[nH]c1=O)O2,"inconclusive [inhibitor, full curve]"
15,CC(=O)c1c(C(C)=O)c(C)n(C(c2ccccc2)c2ccccc2)c1C,"inconclusive [inhibitor, partial curve]"
16,COc1cc(SC)ccc1C(=O)Nc1cccc(S(=O)(=O)NC2=NCCCCC2)c1,"inconclusive [inhibitor, partial curve]"
17,c1ccc(CNc2nc(N3CCOCC3)nc(N3CCOCC3)n2)cc1,"inconclusive [inhibitor, single point]"
18,O=C(c1ccc(N2CCCC2)c([N+](=O)[O-])c1)N1CCN(S(=O)(=O)c2ccc(Cl)cc2)CC1,"inconclusive [inhibitor, partial curve]"
